Source: a collection of fitness landscapes (doi:10.1016/j.celrep.2020.107928)
In all, about 81,000 sequences were measured (“one-hybrid fitness for binding parS DNA”: median about -0.17, highest 2% from about 0.51 on). Some of the results follow.

B1: Caulobacter ParB omega fusion; a variant is named by its letters at X, in order, B8GW30 (parent)
chain: MESVVVGEPGMSEGRRGLGRGLSALLGEVDAAPAQAPGEQLGGSREAPIEILQRNPDQPRRTFREEDLEDLSNSIREKGVLQPILVRPSPDTAGEYQIVAGERAWRAAQRAGLKTVPIMVRELDDLAVLEIGIIENVQRADLNVLEEALSYKVLMEKFERTQENIAQTIGKSXSHVANXMRLLXLPDEVQSYLVSGELTAXHARAIAAAADPVALAKQIIEGGLSVRETEALARKAPNLSAGKSKGGRPPRVKDTDTQALESDLSSVLGLDVSIDHRGSTGTLTITYATLEQLDDLCNRLTRGI

Variants of: B1
Test: one-hybrid fitness for binding parS DNA (scaled: cognate 1, non-cognate 0); higher = stronger binding
Conditions: with parS DNA site
How it was run: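 Pre- and post-selection plasmids were Illumina-sequenced, three replicate libraries were pooled, and any variant with under 10 reads was removed. The libraries were Caulobacter ParB with four specificity codons randomised, selected in E. coli USO through a HIS3 reporter whose site is 19 bp from the promoter. Cells grew 48 hours at 37°C on M9 without histidine, with 0.1 mM IPTG and 5 mM 3-AT. Fitness is the log change in variant-to-wild-type read ratio, rescaled against cognate and non-cognate.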

one-hybrid fitness for binding parS DNA, ≤ 0.2:
PWDS
PGLA
TFML
FVIL
NNAI
DRYC
YIDS
PWHC
LHIC
NSGA
DVMR
LKKS
EYEW
HAIG
PIRL
LMNE
CFCT
TKKI
ASAP
MRRT
VWRI
VAFV
TWPP
PGMT
VCCG
HSHL
PTGV
CVRY
GISM
WSWC
RYVR
QCKK
HPAG
MESE
LCTM
VTND
SHKN
CSAT
QYMS
YWTY
DLSY
ARLD
VEPE
YTQC
CCTA
DTCT
PIWS
QLKM
HWWG
AFEL
PCND
PLWT
ATDV
ATSE
DCCS
FADS
TKRR
GGGG
MEKT
YLTV
GLYV
RLKE
DRFA
WQAH
PLTA
QFIW
FHRM
KIET
APRM
HYTS
ARNG
PPCI
NETT
ALTP
FITS
TECR
ALTK
SCMR
MGTI
NCMT
GDSS
HPPF
YEWS

one-hybrid fitness for binding parS DNA, 0.246:
RLMF
